# Measurements: the supplement of paper PMC11417369
# This is one part of the list.
# Test system: PF3D7_0420300 AP2 domain 1 (GST-tagged)
# Assay: gcPBM binding intensity (ln(normalized median fluorescence intensity)); higher = stronger DNA binding
# Summary of the method: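 After 1 h on an Agilent 4 × 180k array of primer-extended double-stranded 36-bp intergenic genomic probes and negative controls, bound GST-tagged P. falciparum DNA-binding domains were detected with Alexa488 anti-GST antibody and scanned at 488 nm. The domains had been expressed in E. coli, and binding took place in 1× PBS with 1% milk, 0.2 mg/ml BSA, 0.5% salmon testes DNA and 0.03% Triton X-100. Binding intensity is the highest Masliner-normalised natural-log median intensity across replicate spots of either probe orientation.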
row,Sequence,gcPBM binding intensity (ln)
1,GATGAATAAATCAAAGCACACATACACCCACATATA [CACACA_site7986],9.89
2,ATTTTTTTTTTTTTTTTTTGGTTTTCTTTAGGAGTT [CACACA_negctrl_site1258],9.3
3,TTCGTTTAAATCAAGTGTACATATTATATATAATAT [XGTACX_site7599],9.17
4,TTTCTTAAAATGTTATGTACATATTTCGTTTCAAAG [XGTACX_site6102],9.01
5,ATATATTTCAAAGGGGTGCAGGCATATTTAAGCAAA,9.26
6,TCTTTTTAATTTATATGTACTTATATTAATTATAAG [XGTACX_site7524],9.15
7,TGAGCTTCAACAATATGTACATAAAATATATTACAT [XGTACX_site4763],9.13
8,TTAATAAAAGCCCATGCACACCTTAGAAAGTTTTAT [CACACA_site8003],9.21
9,GTATTATAGTATAATACACACCCAAATATTAAAAAG [CACACA_site7404],9.5
10,AAAAAAAAAAAAAAAGCACACATCATATTATAATTC [CACACA_site3355],9.55
11,AGTTATTAAAAATGTGCATGCAATGGTTTCTCTTAA [TGCATGCA_site634],9.2
12,AAAAAAACATAACAAAATGAAACAAAACAAAAAGAA [GTGCAC_negctrl_site577],9.93
13,ATTTATAATGATTTTTTTAGTAATCTTGTTATTTTT [XGTACX_negctrl_site373],9.27
14,TCTTTTTTTTCTTTTTTTTTATTTAAATATCAAGTA [CACACA_negctrl_site1354],9.15
15,AGGAGGTCAGTTCACAGTACCCAGAAACTCTACGAG [XGTACX_site2006],8.87
16,GTATGTATATATATATGTACATACTGTTTATCGTTA [XGTACX_site6168],9.37
17,AACGAAAACACTACGTGTACCAAACGTCCTACTAAC [XGTACX_site4915],9.34
18,GTATATATTTTTATTTAATAATTTGTTTATTTATTC [CACACA_negctrl_site647],9.41
19,CATACATATACATACAGTACATATTTTTTGTCAATT [XGTACX_site7357],9.29
20,TTATATGGCTCCATTTGTACGCATCCATGTTTTTAT [XGTACX_site6590],9.55
21,CTAATGATCATATATACACACACACTAATAAAAAAA [CACACA_site9329],9.97
22,TATATTTAGATATATACACACATTAGCATTTTCATA [CACACA_site6902],9.4

row,Sequence,gcPBM binding intensity (ln)
1,AAAGAATTTGCATATACACACAAAAAGATATATACA [CACACA_site6318],9.54
2,CATAATACAGATAACACACACAATTATACATAAAAT [CACACA_site5742],10
3,TTTCACTTTTTCCAAAGTACATATATAAAAATTAAT [XGTACX_site6947],8.84
4,TTTTAATAAATATACACACACAAAAAAAAAAAAAAA [CACACA_site3971],9.47
5,AATATATAGAAACACACACACAAAAAAAAAAAAAAA [CACACA_site1326],9.83
6,AATAAAAAGACATTCACACATATATATTATTTATAT [CACACA_site5936],9.4
7,AGATTATAAAATTCTACACACATATATACATATATA [CACACA_site3485],9.52
8,GACCAATTCAAATATGCACACAAATTTGAAAACGAT [CACACA_site9202],9.43
9,ATATAAAAAAAAAAAAGTACACATAAACAAATGCAT [XGTACX_site4241],9.41
10,ATATGTAGAAGTAATGCACACATATGTATATATATA [CACACA_site8796],9.57
11,TTAAAATATAATATTCGTACTTATTCAAAAGAAAAA [XGTACX_site2122],8.75
12,TATATATATATATAATGTACATATATATAATATACA [XGTACX_site1552],9.16
13,ATTTCTACTAAAAATACACACGATGATACAACGAAG [CACACA_site1755],9.58
14,ATAATGTAAAAGTAAACACACACATATATATATACA [CACACA_site8793],9.88
15,GTCTTAAAAATTAAAACACACGTTCACTTTCATATT [CACACA_site5803],9.59
16,AATTAATAACAAAATAAACACACATATATAAATACA [CACACA_site8456],9.84
17,ACCTCATAATATTTAACACACAAAATTAAATGTATG [CACACA_site6898],9.5
18,TTTCAAAAAAATAATGTGCACATTAGAAAATAAATA [GTGCAC_site9416],9.2
19,ACATATATTTAAAAATGTACTTACATATATTTTTTA [XGTACX_site6050],9.07
20,TTTTATACATATTTTACACACTAAAATATACATATA [CACACA_site324],9.33
21,GAAGTATTTATTTATGCATGCAAATATACAAAAAAA [TGCATGCA_site975],9.01
22,TTATGTTGTAAATGCACACATACATAAACTCAGTTT [CACACA_site5639],9.38

row,Sequence,gcPBM binding intensity (ln)
1,TAAATATTTTTAGATGCATGCAATAATTACCCAAAG [TGCATGCA_site636],9.22
2,TTTTTTTTTTCTGAAAGTACTAATTTCCTGGAGGAA [XGTACX_site759],8.6
3,TTATTATTATTACTAGTGCATTAATTATATATGTAA,9.19
4,ATAAAATAAATATTTTGTTATTTATTTAATCTAATA [XGTACX_negctrl_site404],8.82
5,AAACATAAGAGACACACACACATATATAAATAAATA [CACACA_site7674],10.2
6,AAAAATAAAATAAAGAAGGAAAATAAAAAAATAAGG [CACACA_negctrl_site1811],9.43
7,AGGAGGTCAGTTCACAGTACCCAGGAAATCTACGGA [XGTACX_site2552],9.06
8,AATTTCATAAATATAACTGAGAATAAATAAACAAAG [GTGCAC_negctrl_site146],9.34
9,CCTGTAAATAAATATAAATACATATTTCTAATATAT [GTGCAC_negctrl_site21],9.01
10,GTATATATGTATATATGTACATATATACATTTTGTT [XGTACX_site7320],9.34
11,CGTTAAAGGGAATGTATACACACGTTTCTCTATGTT [CACACA_site1198],9.55
12,TTAAATAATATTAAATGTACATATTATTATGATATA [XGTACX_site6189],8.94
13,TTATAACAACTGGAATGATTAACAATAAATATTAAA [CACACA_negctrl_site1723],9.19
14,TATATATTTAACAATCGTACATATTTACAAATATAA [XGTACX_site2131],8.99
15,ACAGAAAAAAAACACACACACATAATATACATACAT [CACACA_site1932],10.2
16,TATACATATATAAATGCATGTTGATATTAATAGTTA [TGCATGCA_site639],9.05
17,AGGAGACTTAAAAAAAGTACAAAAAAAAAAAAAAGC [XGTACX_site1576],9.65
18,TATTTTTTTTTCTTTTTATATATAATAATCTTCATT [GTGCAC_negctrl_site80],9.24
19,ATATTTCTGTCAAGCACACATAATATTAAAATATGT [CACACA_site4330],9.31
20,ATTTAGAAAAATAAAACACACATATAGATGTAAATA [CACACA_site7853],9.43
21,TCATATTATAATGTGAGTACATATAATAAATAAGTT [XGTACX_site2470],9.12
22,ATGTTTGTCTATAGCTGTACCTATTTATAAAACGTA [XGTACX_site7157],9.34

row,Sequence,gcPBM binding intensity (ln)
1,TTAATATGATATATATATATATATATATATATATAT [CACACA_negctrl_site683],8.91
2,GTAAAAATTTTAAATACATGCAAGCGATTAATATGA [TGCATGCA_site80],9.1
3,AAGAAAAACTTTACGTGTACCAAACATCCTGCCAAC [XGTACX_site598],9.64
4,ATAGACAGCGCACAAACACACAAACACCCACCCACA [CACACA_site8043],10.1
5,TATATTGATGATGATAGTACGTATGATTAGAAAAAA [XGTACX_site8989],9.18
6,AGTGATACTAATTTTTGTACGCATAAAAGAATATTC [XGTACX_site6055],9.08
7,AAAAAAAAAAAAATACGTACATACATACCTACATAT [XGTACX_site233],9.4
8,TATATATATATGTGTACACAATTTATCTGTATTTAT [CACACA_site5945],9.5
9,TTTTTTTTTTTTTTTTGTACGTATCAAAAAATTTGT [XGTACX_site1023],8.53
10,AAAAATAAATTTAGTTGTACTTTATTATTTTAAATA [XGTACX_site3067],9
11,AATCAATAAATAAAAACATGCATATATATATATATA [TGCATGCA_site438],9.3
12,AAAATAAAAATATTCACACATACAAAAATTATACAA [CACACA_site5136],9.56
13,CATTAATAAAAAAAAAGTACAAAAAATATATATATT [XGTACX_site2091],9.42
14,ATTTTTTTACTGTAACCATATTTTTCCCTTTTATTC [CACACA_negctrl_site1143],9.45
15,ATAATATATATATATAGTACATATATATAATATTCT [XGTACX_site2445],9.16
16,ATATAAAAATGTGTATGTACACACTTTATTTTTAAT [XGTACX_site5272],9.29
17,ATCCTTTATTTTTTTTGTACATAAAAATAACTCGAG [XGTACX_site3885],9.18
18,TTAAAAAACCTTAGATGTACAGTTATATATAAAATA [XGTACX_site6688],9.18
19,AAATTACAAATACAAACACACAAATGTTTTTCATTC [CACACA_site3552],9.4
20,TTTTTCTATAAAAAATGTACATATTTTATGAAGGAA [XGTACX_site821],8.75
21,TGAACACACGAGCACACACACACATCTATATTTATA [CACACA_site6607],10.1
22,TGGAATAATACGCGTACACACATATATATATTAATA [CACACA_site131],9.6
